Several values for one entry are separate records, joined by “and”; a condition that tells them apart may be missing. Identical values can stand only once.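 Values below derive from 48-hour exposures of cells grown in 96-well plates, with endpoints linearly interpolated between the two concentrations bracketing the appropriate inhibition level. Here, GI50 denotes the concentration required for 50% inhibition of growth. TGI denotes the concentration required for complete inhibition of growth.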
Tested on: NCI-H322M lung
Assay: growth of human tumour cells (NCI), 48 h

COc1cccc(/C=N/[N-]C(N)=O)c1[O-].[Cu+2].c1ccncc1
TGI: 38.3 µM

CCCCCCOc1ccc(/C=N/Nc2cc(C)nc3ccc(Br)cc23)cc1
GI50: 1.71 µM
TGI: 3.08 µM

CC1(C)CC(=O)C(/C=N/c2nc(-c3cccc([N+](=O)[O-])c3)cs2)=C(O)C1
TGI: > 100 µM

Cc1nc2c(ccc3[nH]c4ccccc4c32)s1
TGI: > 100 µM

COc1ccc(/C=C2\NC(=S)N(CN3CCOCC3)C2=O)cc1
TGI: > 100 µM

NC(=O)NC(=O)c1cccc(C(=O)NC(N)=O)n1
TGI: > 100 µM

Nc1c(C(=O)Nc2cccc3ccccc23)sc2nc3c(cc12)CCCCCC3
GI50: 4.24 µM
TGI: > 50 µM

O=C1CCC(=O)C12CCc1ccccc12
TGI: > 100 µM

COC(=O)/C=C/c1cc(OC)c2c(c1)[C@@H](C(=O)OC)[C@H](c1ccc(OC)c(OC)c1)O2
GI50: 22.9 µM
TGI: > 100 µM

c1ccc2c[n+](Cc3ccnc4ccccc34)ccc2c1
TGI: > 100 µM

COc1ccc(/C=C2\CCC(CN(C)C)C2=O)cc1 (configuration not stated)
TGI: 30.8 µM

CCOC(=O)CCNC(=O)c1cc(C)cc2c1Oc1c(cc(C)cc1C(=O)NCCC(=O)OCC)S2
TGI: > 100 µM

O=c1oc2ccc([N+](=O)[O-])cc2cc1-c1csc(-c2ccccc2)n1
TGI: > 100 µM

Cc1nc(N(C)C)nc(-c2cccc(-c3ccn(CCN(C)C)n3)c2)c1C
GI50: > 20 µM
TGI: > 20 µM

COC(=O)/C=C/[C@H]1[C@H](C)N1S(=O)(=O)c1ccc(C)cc1 (some centres not stated)
TGI: > 100 µM

CC(=O)NC1C(OCc2ccccc2)OC(COC(=O)CCCCCCCCCCNC(=O)CCNc2ccc([N+](=O)[O-])c3[nH]c4ccc(O)cc4c(=O)c23)C(O)C1OC(C)C(=O)N[C@H](C(=O)N[C@H](CCC(=O)O)C(N)=O)C(C)C (some centres not stated)
TGI: > 100 µM

CC(C)[Si](CC1=CCCCC12C(=O)N(COCC[Si](C)(C)C)c1ccccc12)(C(C)C)C(C)C (configuration not stated)
TGI: > 100 µM

CCOc1ccnc2c(OC)c(C)c3nc4ccccc4nc3c12
TGI: > 100 µM

CCOC(=O)C(C(=O)OCC)C(=S)NC1OC(COC(C)=O)C(OC(C)=O)C(OC(C)=O)C1OC(C)=O (configuration not stated)
TGI: > 100 µM

C[C@]12CC[C@H](O)CC1CCC[C@@H]2O (some centres not stated)
TGI: > 100 µM

CN(CC(=O)O)Cc1c[nH]c2ccccc12
TGI: > 100 µM

Cc1cc(=O)[nH]c2c1C(=O)C(=O)C=C2
GI50: 23.7 µM
TGI: 46.2 µM

COc1nc(C(Cl)(Cl)Cl)c(Cl)c(OC)c1Cl
GI50: > 60.2 µM
TGI: > 93 µM and 77.6 µM

COC(=O)C(Cc1cc(OC)c(OC)c(OC)c1)(NC(=O)c1ccccc1)P(=O)(OC)OC (configuration not stated)
TGI: > 100 µM

COc1cc(Cl)c(C)cc1NC(=O)c1cc2ccccc2cc1O
GI50: 3.04 µM
TGI: 17.2 µM

O=[N+]([O-])C(=C(\Cl)NCCO)/C(Cl)=C(/Cl)Br
TGI: 28.4 µM

CSc1cc(Cl)c(C)cc1S(=O)(=O)NC(=O)NNc1cnc2ccccc2n1
TGI: > 100 µM

O=[N+]([O-])c1cc(C2ON=C(c3ccccc3)N2C23CC4CC(CC(C4)C2)C3)ccc1Cl (configuration not stated)
TGI: > 100 µM

CC1(C)OC(=O)C(c2ccsc2)C(=O)O1
TGI: > 100 µM

COc1ccccc1NC(=O)C(=O)C(C#N)CC(C)(C)C=O (configuration not stated)
TGI: > 100 µM

O=C1CN2CCN(CC2)CC(=O)Nc2ccc(cc2)S(=O)(=O)c2ccc(cc2)NC(=O)CN2CCN(CC2)CC(=O)Nc2ccc(cc2)S(=O)(=O)c2ccc(cc2)N1
TGI: > 100 µM

CC1(C)C/C=C\CCC(O)C(O)CCC(C)(C)C1=O (configuration not stated)
TGI: > 100 µM

COc1ccc(S(=O)(=O)Nc2c(/C=C\c3cc(OC)c(OC)c(OC)c3)ccc(OC)c2O)cc1OC
GI50: 0.631 µM
TGI: > 100 µM

O=c1ccc2c(Cl)sc(Cl)c2[nH]1
TGI: > 100 µM

NC(CSC(c1ccccc1)(c1ccccc1)c1ccc(Br)cc1)C(=O)O (configuration not stated)
GI50: 0.111 µM
TGI: > 86.7 µM

Nc1nc(=O)n(C2CC(O)C(CO)O2)c2nc(-c3ccc(-c4ccccc4)cc3)cnc12 (configuration not stated)
TGI: > 100 µM

COc1cc(CNC(=O)CCCCCCCCCCSC#N)ccc1O
TGI: 30.8 µM

N=C(N)c1ccc(-c2ccc(-c3ccccc3)o2)o1
GI50: 2.12 µM
TGI: 6.04 µM

COc1cccc(-c2nn(C)c3sc(C(=O)NCCN4CCN(c5ccccc5F)CC4)cc23)c1
GI50: 39.2 µM
TGI: > 100 µM

COc1cc(-c2cc(C(=O)N3CCN(C(=O)c4ccccc4NCc4cccs4)CC3)nc3cc(-c4ccccc4)nn23)cc(OC)c1OC
GI50: > 100 µM
TGI: > 100 µM

O=c1cc(/C=C/c2ccccc2)c2ccc(O/C(=C\c3ccccc3)c3nc4ccccc4c(=O)o3)cc2o1
TGI: > 100 µM

CC(C)N=C(NC#N)NS(=O)(=O)c1cnccc1NC1CCCCCCC1
TGI: > 100 µM

CC(C)(C)OC(=O)/C=C/[C@@H](CCC(=O)/C=C/[C@H](/C=C\CCCC(=O)O)NC1(c2ccccc2)c2ccccc2-c2ccccc21)O[Si](C)(C)C(C)(C)C
TGI: 36.7 µM

COC(=O)C1=C(C(=O)OC)C2CCC1CC2=O (configuration not stated)
TGI: > 100 µM

CCCCCCCCCCCCCCCc1nc(SCC(=O)O)n[nH]1
TGI: > 100 µM

CC1=NN(c2cccc(S(=O)(=O)O)c2)C2(C1)SCC(=O)N2c1nc2ccccc2s1 (configuration not stated)
TGI: > 100 µM

CN(C)CCNc1nc2c(c(=O)n(C)c(=O)n2C)n1C
TGI: > 100 µM

O=Cc1ccc(Oc2c3ccccc3nc3ccccc23)cc1
TGI: 26.8 µM

CSc1nc(NC2OC(CO)C(O)C(O)C2O)c(N)c(=O)[nH]1 (configuration not stated)
TGI: > 100 µM

N#C[C@H](c1nc2ccccc2[nH]1)c1nc2ccccc2nc1Cl
TGI: 10.9 µM

Source: PubChem BioAssay (NCI)
